# Laboratory results published in publication PMC9911399, “Two distinct binding modes provide the RNA-binding protein RbFox with extraordinary sequence specificity”.
# Numbering of substitutions follows the chain as printed; changes in the protein carry UniProt numbers. This is one part of the list.
# T1: RBFOX1 RRM (Homo sapiens, UniProt Q9NWB1 109-208)
# T1 sequence: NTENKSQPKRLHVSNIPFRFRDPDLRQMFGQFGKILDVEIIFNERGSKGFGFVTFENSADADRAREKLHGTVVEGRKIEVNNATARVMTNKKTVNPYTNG
# B1: CGUUCUA (DNA:RNA)
# RNA: GGGAGACCGGAAUUCAGAUUGUCCCGUUCUAUUAAAUCCCGUCGUAGCCACCA
# DNA 1: CAATCTGAATTCCGGTCTCCC
# DNA 2: TGGTGGCTACGACGGGATT
# B2: GAGACUC (DNA:RNA)
# RNA: B1 RNA with C25G, G26A, U27G, U28A, A31C
# DNA 1: CAATCTGAATTCCGGTCTCCC
# DNA 2: TGGTGGCTACGACGGGATT
# B3: AUUUGUU (DNA:RNA)
# RNA: B1 RNA with C25A, G26U, C29G, A31U
# DNA 1: CAATCTGAATTCCGGTCTCCC
# DNA 2: TGGTGGCTACGACGGGATT
# B4: UUUACCA (DNA:RNA)
# RNA: B1 RNA with C25U, G26U, U28A, U30C
# DNA 1: CAATCTGAATTCCGGTCTCCC
# DNA 2: TGGTGGCTACGACGGGATT
# B5: UUACCAC (DNA:RNA)
# RNA: B1 RNA with C25U, G26U, U27A, U28C, U30A, A31C
# DNA 1: CAATCTGAATTCCGGTCTCCC
# DNA 2: TGGTGGCTACGACGGGATT
# B6: AGCUUAC (DNA:RNA)
# RNA: B1 RNA with C25A, U27C, C29U, U30A, A31C
# DNA 1: CAATCTGAATTCCGGTCTCCC
# DNA 2: TGGTGGCTACGACGGGATT
# B7: AGAAUAA (DNA:RNA)
# RNA: B1 RNA with C25A, U27A, U28A, C29U, U30A
# DNA 1: CAATCTGAATTCCGGTCTCCC
# DNA 2: TGGTGGCTACGACGGGATT
# B8: GCCGAAU (DNA:RNA)
# RNA: GGGAGACCGGAAUUCAGAUUGUCCGCCGAAUUUAAAUCCCGUCGUAGCCACCA
# DNA 1: CAATCTGAATTCCGGTCTCCC
# DNA 2: TGGTGGCTACGACGGGATT
# B9: CAGAUCA (DNA:RNA)
# RNA: B1 RNA with G26A, U27G, U28A, C29U, U30C
# DNA 1: CAATCTGAATTCCGGTCTCCC
# DNA 2: TGGTGGCTACGACGGGATT
# B10: GAGCCAG (DNA:RNA)
# RNA: B8 RNA with C26A, C27G, G28C, A29C, U31G
# DNA 1: CAATCTGAATTCCGGTCTCCC
# DNA 2: TGGTGGCTACGACGGGATT
# B11: UGAACAG (DNA:RNA)
# RNA: B1 RNA with C25U, U27A, U28A, U30A, A31G
# DNA 1: CAATCTGAATTCCGGTCTCCC
# DNA 2: TGGTGGCTACGACGGGATT
# B12: CCGACCU (DNA:RNA)
# RNA: B1 RNA with G26C, U27G, U28A, U30C, A31U
# DNA 1: CAATCTGAATTCCGGTCTCCC
# DNA 2: TGGTGGCTACGACGGGATT
# B13: UCGAGAC (DNA:RNA)
# RNA: B8 RNA with G25U, C27G, G28A, A29G, U31C
# DNA 1: CAATCTGAATTCCGGTCTCCC
# DNA 2: TGGTGGCTACGACGGGATT
# B14: GGUAAAG (DNA:RNA)
# RNA: B8 RNA with C26G, C27U, G28A, U31G
# DNA 1: CAATCTGAATTCCGGTCTCCC
# DNA 2: TGGTGGCTACGACGGGATT
# B15: ACGUCCU (DNA:RNA)
# RNA: B1 RNA with C25A, G26C, U27G, U30C, A31U
# DNA 1: CAATCTGAATTCCGGTCTCCC
# DNA 2: TGGTGGCTACGACGGGATT
# B16: GUAAUCG (DNA:RNA)
# RNA: B8 RNA with C26U, C27A, G28A, A29U, A30C, U31G
# DNA 1: CAATCTGAATTCCGGTCTCCC
# DNA 2: TGGTGGCTACGACGGGATT
# B17: CGCACUU (DNA:RNA)
# RNA: B1 RNA with U27C, U28A, A31U
# DNA 1: CAATCTGAATTCCGGTCTCCC
# DNA 2: TGGTGGCTACGACGGGATT
# B18: GCGUCGA (DNA:RNA)
# RNA: B1 RNA with C25G, G26C, U27G, U30G
# DNA 1: CAATCTGAATTCCGGTCTCCC
# DNA 2: TGGTGGCTACGACGGGATT
# B19: AGCAUAC (DNA:RNA)
# RNA: B8 RNA with G25A, C26G, G28A, A29U, U31C
# DNA 1: CAATCTGAATTCCGGTCTCCC
# DNA 2: TGGTGGCTACGACGGGATT
# B20: GCGAGCA (DNA:RNA)
# RNA: B8 RNA with C27G, G28A, A29G, A30C, U31A
# DNA 1: CAATCTGAATTCCGGTCTCCC
# DNA 2: TGGTGGCTACGACGGGATT
# Biological target: T1, RBFOX1 RRM
# Experiment: EMSA; HiTS-Eq, 1 nM pool, 10 min; buffer printed only for the single-RNA assays: 10 mM Tris pH 7.5, 150 mM NaCl, 3.4 mM EDTA, 0.001% NP-40, 30 C
# Conditions: tags: His6 N-terminal (pET28a); label: 5' 32P
# Procedure, shortened: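 These values rest on relative association constants, computed from read-count changes of each RNA species versus the control reaction and normalised to the cognate motif. Reads came from free RNA recovered by 8% native PAGE after purified RbFox RRM (wild type or mutant) at increasing concentrations was equilibrated for 10 min in 50 µL with 1 nM of a 5′-radiolabelled pool with 7 randomized nucleotides and DNA-annealed flanks.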
row,Binder,binding signal
1,B1,0.00814 KA relative to UGCAUGU
2,B2,0.015 KA relative to UGCAUGU
3,B3,0.0145 KA relative to UGCAUGU
4,B4,0.00361 KA relative to UGCAUGU
5,B5,0.0022 KA relative to UGCAUGU
6,B6,0.00674 KA relative to UGCAUGU
7,B7,0.000945 KA relative to UGCAUGU
8,B8,0.0115 KA relative to UGCAUGU
9,B9,0.00299 KA relative to UGCAUGU
10,B10,0.0103 KA relative to UGCAUGU
11,B11,0.0126 KA relative to UGCAUGU
12,B12,0.00445 KA relative to UGCAUGU
13,B13,0.00506 KA relative to UGCAUGU
14,B14,0.00714 KA relative to UGCAUGU
15,B15,0.00298 KA relative to UGCAUGU
16,B16,0.00865 KA relative to UGCAUGU
17,B17,0.005 KA relative to UGCAUGU
18,B18,0.0181 KA relative to UGCAUGU
19,B19,0.0047 KA relative to UGCAUGU
20,B20,0.0218 KA relative to UGCAUGU
